Laboratory results published in article PMC4336329 (PLoS ONE, 2015).
About 2,200 (0.71%) of roughly 310,000 compounds showed an effect of 50% or more. The effect is printed as a negative number. The list shows a part of the results.

molecular target: human ether-à-go-go-related gene (hERG) potassium channel (human, UniProt Q12809); assay: primary screen, population patch clamp on CHO cells stably expressing hERG
Sequence (Q12809 whole entry, looked up): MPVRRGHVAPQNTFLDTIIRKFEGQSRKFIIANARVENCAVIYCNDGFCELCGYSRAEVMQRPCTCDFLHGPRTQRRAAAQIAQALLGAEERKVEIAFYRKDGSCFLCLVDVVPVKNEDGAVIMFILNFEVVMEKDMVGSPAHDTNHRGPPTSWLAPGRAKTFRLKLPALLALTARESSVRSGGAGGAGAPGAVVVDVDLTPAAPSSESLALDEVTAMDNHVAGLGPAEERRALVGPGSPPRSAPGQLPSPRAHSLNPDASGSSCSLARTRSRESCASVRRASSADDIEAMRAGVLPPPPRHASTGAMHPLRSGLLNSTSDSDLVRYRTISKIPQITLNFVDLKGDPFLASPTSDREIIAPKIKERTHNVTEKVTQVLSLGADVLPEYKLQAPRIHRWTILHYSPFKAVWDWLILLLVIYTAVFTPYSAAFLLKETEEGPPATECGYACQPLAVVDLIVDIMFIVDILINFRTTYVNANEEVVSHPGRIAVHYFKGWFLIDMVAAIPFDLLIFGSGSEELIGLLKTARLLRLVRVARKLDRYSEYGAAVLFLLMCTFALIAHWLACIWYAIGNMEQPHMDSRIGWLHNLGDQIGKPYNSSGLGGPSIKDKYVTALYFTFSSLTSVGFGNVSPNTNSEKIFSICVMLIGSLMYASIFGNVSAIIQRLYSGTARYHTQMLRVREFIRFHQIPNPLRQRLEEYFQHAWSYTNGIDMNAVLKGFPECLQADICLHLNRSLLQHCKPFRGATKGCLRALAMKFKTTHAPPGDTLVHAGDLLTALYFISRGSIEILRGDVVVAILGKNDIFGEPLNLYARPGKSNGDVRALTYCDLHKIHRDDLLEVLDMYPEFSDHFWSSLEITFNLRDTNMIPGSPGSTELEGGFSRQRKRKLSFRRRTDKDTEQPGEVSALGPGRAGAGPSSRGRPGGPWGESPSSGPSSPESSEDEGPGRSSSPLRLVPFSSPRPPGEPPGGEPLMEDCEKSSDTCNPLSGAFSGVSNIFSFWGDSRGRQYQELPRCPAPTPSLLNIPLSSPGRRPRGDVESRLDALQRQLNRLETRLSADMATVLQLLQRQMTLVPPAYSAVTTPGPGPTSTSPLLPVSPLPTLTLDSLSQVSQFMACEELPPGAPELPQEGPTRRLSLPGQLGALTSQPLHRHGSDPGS

SMILES | hERG current change (%, negative = inhibition) at 1uM [%]
CNc1nc(Nc2ccc(C)c(Cl)c2)c2cnn(C)c2n1 | 13.3
CCOC(=O)c1[nH]c(C)c(C(=O)N2CCCC(Nc3ccc(C)c(C)c3)C2)c1C (stereo not shown) | 4.33
COc1cc(CNc2ccc3[nH]c(=O)[nH]c3c2)ccc1OCC(=O)NC(C)(C)C | 8.94
CC(C)NC(=O)CCS(=O)(=O)c1ccc(Br)s1 | 16.6
CCOC(=O)c1ccc(NC(=O)c2ccc3c(c2)C(=O)N(Cc2cccnc2)C3=O)cc1 | 2.77
COc1ccc(-c2nnc(SCC(=O)N3c4ccccc4Sc4ccccc43)o2)cc1 | 9.22
COc1cccc(N(CC(=O)NC2CCCC2)C(=O)Cn2nnc(-c3ccc(C)cc3)n2)c1 | 7.63
O=C1N[C@@H](Cc2ccccc2)C(=O)N2[C@@H]1C[C@@]1(Br)c3ccccc3N(S(=O)(=O)c3ccccc3)[C@@H]21 | 2.53
O=C(/C=C/c1cccs1)c1ccc(N2CCOCC2)cc1 | 22.6
Cc1cc(Br)ccc1OCC(=O)NNC(=O)c1ccc(NC(=O)C2CC2)cc1 | 12.8
O=C(/C=C/c1ccccc1)NCC(=O)N/N=C\c1cccnc1 | 8.35
COc1ccc(N(C(=O)c2ccncc2)S(=O)(=O)c2cccs2)cc1 | 2.26
COc1ccccc1N1CCN(C(=O)c2cc3c(=O)n4cccc(C)c4nc3s2)CC1 | 14.1
COCCCn1c(SCC(=O)NNC(=O)c2cccc(O)c2)nnc1-c1ccncc1 | 8.91
COc1cc(C2C(C#N)=C(N)N(Nc3ccccc3)C3=C2C(=O)CC(C)(C)C3)ccc1OCc1ccccc1 (stereo not shown) | 15
COCCNC(=O)C(c1ccco1)N(C(=O)Cn1nnc2ccccc21)c1ccccc1C (stereo not shown) | 9.38
O=C(/C=C/c1cn(-c2ccccc2)nc1-c1cccc(Cl)c1)N1CCN(c2ccccn2)CC1 | 11
O=C(NC(=S)Nc1ccc(N2CCOCC2)cc1)c1cccc([N+](=O)[O-])c1 | 13.5
Cc1ccccc1-c1nc(CS(=O)(=O)CC(=O)N2CCOCC2)c(C)o1 | 11.4
Cc1nonc1NC(=O)OC1CCCCC1 | 0.399
CCN(CC)CCNC(=O)c1ccc(NC(=O)c2ccc(Cl)c(S(=O)(=O)N3CCCCCC3)c2)cc1.Cl | 1.9
CC(NC(=O)C[n+]1cccc(Br)c1)c1ccccc1.[Cl-] (stereo not shown) | 11.9

SMILES | hERG current change (%, negative = inhibition) at 1uM [%]
CC(C)OC(=O)c1cccnc1N1CCN(c2cccc(Cl)c2)CC1 | 10.5
NC(=O)NNc1cccc(Cl)n1 | 13.7
COC(=O)CC1SC(=O)NC1=Nc1ccc(OC)cc1 (stereo not shown) | 5.72
Cc1ccc(OCC(=O)Sc2ccc(C)cc2)cc1 | 6.84
COc1ccc(-n2c(Cc3cccn3C)nnc2SCC(=O)Nc2ccccc2F)cc1 | -9.19
CCc1c(C)nc2ncnn2c1N1CCCC(C(=O)NCc2ccc3c(c2)OCO3)C1 (stereo not shown) | -2.65
Cc1ccc(NC(=S)NCc2ccccc2)cc1S(=O)(=O)N1CCCCC1 | 10
CCOc1ccccc1C(=O)NCC(=O)OCC(=O)N1C(C)CCCC1C (stereo not shown) | 2.6
COc1ccc(/C(C)=N/NC(=O)c2ccc(N(C)C)cc2)cc1 | 6.18
COCCCNC(=O)c1cc(C(=O)c2c(-c3c(Cl)cccc3Cl)noc2C)c[nH]1 | 11.9
CCC(C)(C)n1nnnc1C(c1ccncc1)N1CCC(Cc2ccccc2)CC1 (stereo not shown) | 9.24
CCCCN(C)C(=O)c1ccc(CS(=O)(=O)c2ccccc2C)o1 | -15.2
COc1ccc(NC(=O)c2ccc(OC(=S)N(C)c3ccc(OC)cc3)cc2)cc1 | 15.7
Cc1ccccc1Cn1nc(C)c(NC(=O)c2noc3c2CCc2ccccc2-3)c1C | 17.9
c1ccc(-c2noc(CSc3nnnn3-c3ccccc3)n2)cc1 | 7.02
Nc1c(C(=O)Nc2ccc(Cl)c(Cl)c2)sc2nc(-c3cccnc3)ccc12 | 6.61
Cc1ccc(O)c(-c2cc(-c3ccc(F)cc3)no2)c1 | 4.47
CCOc1ccc(NS(=O)(=O)c2c(C)nc3sccn3c2=O)cc1 | -0.551
COc1cc(C(=O)Nc2nc(-c3cccs3)cs2)cc(OC)c1OC | 19.2
Cc1ccc(CSc2nc3[nH]ncc3c(=O)[nH]2)cc1 | 7.57
O=C1Oc2ccccc2C(=O)/C1=C\N1CCN(c2ccccc2)CC1 | 5.42
O=C(CNS(=O)(=O)c1ccccc1)N/N=C/c1ccccc1[N+](=O)[O-] | 11

SMILES | hERG current change (%, negative = inhibition) at 1uM [%]
CC(Oc1ccc2c(=O)c(-c3ccc(Cl)cc3)c(C(F)(F)F)oc2c1)C(=O)O (stereo not shown) | 8.68
O=C(CCN1c2ccccc2Sc2ccccc21)OCC(=O)N1CCN(C(=O)c2ccco2)CC1 | -0.873
Cc1cc(NC(=O)c2ccccc2)cc(NC(=O)c2ccccc2)c1C | 17.2
O=C(NCC1CCCO1)c1ccc(Br)s1 (stereo not shown) | 12.8
CCCCC1(CO)C(=O)N(c2ccccc2)N(c2ccccc2)C1=O | 11.3
CCOC(=O)c1c(CSc2ccccc2)n(C)c2ccc(O)cc12 | 15.4
c1ccc(-c2noc(-c3ccc4ccccc4c3)n2)cc1 | 13.4
CCN(CC)CCC(=O)N1c2ccccc2Sc2ccc(Cl)cc21.Cl | -3.67
Cc1ccc(C)c(/C=C(\C(=O)O)c2ccc(S(=O)(=O)N3CCCCC3)s2)c1 | 6.97
CCN(Cc1ccccc1)C(c1ccccn1)c1nnnn1C(C)(C)CC (stereo not shown) | 6.17
O=C(Cc1ccc2c(c1)OCCO2)N1CCN(S(=O)(=O)c2cccc(Cl)c2Cl)CC1 | 4.06
COCCc1ncc(CN2CCC(C(=O)Nc3ccc(-n4cccn4)cc3)CC2)cn1 | -5.56
CCOC(=O)C1=C(Cn2ccc(C(F)(F)F)n2)NC(=O)NC1c1ccc2c(c1)OCO2 (stereo not shown) | 4.29
Cc1c(Cc2ccccc2)c(=O)n2c([nH]c3ccccc32)c1C#N | -3.06
Cc1cc2cc(C)c3nnc(SCC(=O)N4CCCc5ccccc54)n3c2cc1C | -6.41
CCCOc1c(OC)cccc1C1CC(=O)Nc2cc3c(cc21)OCO3 (stereo not shown) | 7.27
CCOc1ccc(NC(=O)Cn2sc3nc(C)cc(C)c3c2=O)cc1 | 6.16
COc1ccccc1NC(=O)COc1ccc(C(F)(F)F)cc1[N+](=O)[O-] | 2.82
Cc1ccc(C)c(Nc2nc3nonc3nc2N2CCOCC2)c1 | 17.6
CCCCCc1ccc(OCCC[n+]2ccccc2)c(CCCCC)c1.[Cl-] | -33.9
CC1C(=O)CC(c2ccc([N+](=O)[O-])cc2)NC1c1ccc([N+](=O)[O-])cc1.Cl (stereo not shown) | -51
CCOc1ccc(Nc2nc3ccccc3n2C)cc1 | 11.2

SMILES | hERG current change (%, negative = inhibition) at 1uM [%]
CC(NC(=O)c1ccco1)C1COc2ccccc2O1 (stereo not shown) | 12.6
N#CC1=C(N)C(C#N)(C#N)C(c2cccnc2)C2CCCC=C12 (stereo not shown) | -1.61
O=C(Nc1nc(C2C3CC4CC(C3)CC2C4)cs1)c1cc2cc([N+](=O)[O-])ccc2oc1=O (stereo not shown) | 5.63
COc1ccc(CC(=O)N(CCN(C)C)CC2CCCN(Cc3ccccc3F)C2)cc1 (stereo not shown) | 8.8
O=C(Cn1ccc([N+](=O)[O-])n1)N1CCCCCC1 | 13.1
O=C(O)c1ccc(S(=O)(=O)NCC2CCCO2)cc1 (stereo not shown) | 6.37
Cn1c(N)c(Br)c(-c2ccc(F)cc2)c(C#N)c1=O | 4.34
CCN(CC)P(=O)(Oc1ccccc1)Oc1ccccc1 | 9.28
CCCCn1cc(S(=O)(=O)c2ccccc2)c(=O)c2cc(C)ccc21 | -7.29
COC(=O)COc1ccccc1C(N)=O | 0.27
O=c1c2ccccc2nc(SCc2nc(-c3ccccc3)no2)n1-c1ccc(F)cc1 | 14.3
O=C(/C=C/c1ccccc1)c1ccc(NC2=NCCCS2)cc1 | 13.1
O=C(c1ccc(NC2=NC3CS(=O)(=O)CC3S2)cc1)N1CCN(c2ccccc2)CC1 (stereo not shown) | 15.1
CCN1C(=O)[C@H]2[C@@H](c3ccc(SC4CCCCC4)c(OC)c3)N[C@@](Cc3ccccc3)(C(=O)OC)[C@H]2C1=O.O=C(O)C(F)(F)F | 13.7
COc1ccc(/C=N/N=C2/NC(=O)C(CC(=O)NC(N)=O)S2)cc1 (stereo not shown) | 4.48
CCN(CC)C(=O)c1cn(C)c(=O)c2cc(OC)c(OC)cc12 | 20.3
CCCN(C(=O)c1cccc(-n2cccc2)c1)c1c(N)n(Cc2ccccc2)c(=O)[nH]c1=O | 17.8
COc1ccc(NC(=O)CSc2nccc(C)n2)cc1 | 9.87
O=C(CC(C(=O)O)P(=O)(c1ccccc1)c1ccccc1)c1ccc(Br)cc1 (stereo not shown) | -0.421
